# According to the supplement of paper PMC8728848:
# This is one part of the list.
# Assays:
# Assay in all cases: glycan array binding signal (z-score within array); higher = stronger binding
# Conditions in all cases: glycan notation: IUPAC condensed, linker removed; mutation: N224Q
# [1] = target: GlcNAc(a1-6)Gal(b1-4)GlcNAc
# Outline: (§1)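 The Consortium for Functional Glycomics database supplied 3228 glycan arrays, of which those lacking an available protein sequence were dropped. The binding signal, a within-array Z-score, was averaged across arrays of the same protein sequence and across linkers. Negative scores can be read as non-binding.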
# [2] = target: GlcNAc(b1-2)Gal(b1-3)GalNAc
# Outline: as §1
# [3] = target: GlcNAc(b1-2)Man(a1-3)[GlcNAc(b1-2)Man(a1-6)]Man(b1-4)GlcNAc(b1-4)GlcNAc
# Outline: as §1
# [4] = target: GlcNAc(b1-2)Man(a1-3)[GlcNAc(b1-2)Man(a1-6)]Man(b1-4)GlcNAc(b1-4)[Fuc(a1-6)]GlcNAc
# Outline: as §1
# [5] = target: GlcNAc(b1-2)Man(a1-3)[GlcNAc(b1-4)][GlcNAc(b1-2)Man(a1-6)]Man(b1-4)GlcNAc(b1-4)GlcNAc
# Outline: as §1
# [6] = target: GlcNAc(b1-2)Man(a1-3)[GlcNAc(b1-4)][GlcNAc(b1-2)Man(a1-6)]Man(b1-4)GlcNAc(b1-4)[Fuc(a1-6)]GlcNAc
# Outline: as §1
# [7] = target: GlcNAc(b1-2)[GlcNAc(b1-4)]Man(a1-3)[GlcNAc(b1-2)Man(a1-6)]Man(b1-4)GlcNAc(b1-4)GlcNAc
# Outline: as §1
# [8] = target: GlcNAc(b1-2)[GlcNAc(b1-4)]Man(a1-3)[GlcNAc(b1-4)][GlcNAc(b1-2)Man(a1-6)]Man(b1-4)GlcNAc(b1-4)GlcNAc
# Outline: as §1
# [9] = target: GlcNAc(b1-2)[GlcNAc(b1-4)]Man(a1-3)[GlcNAc(b1-4)][GlcNAc(b1-2)[GlcNAc(b1-6)]Man(a1-6)]Man(b1-4)GlcNAc(b1-4)GlcNAc
# Outline: as §1
# [10] = target: GlcNAc(b1-2)[GlcNAc(b1-4)]Man(a1-3)[GlcNAc(b1-4)][GlcNAc(b1-2)[GlcNAc(b1-6)]Man(a1-6)]Man(b1-4)GlcNAc(b1-4)[Fuc(a1-6)]GlcNAc
# Outline: as §1
# [11] = target: GlcNAc(b1-2)[GlcNAc(b1-6)]Man(a1-6)[GlcNAc(b1-2)Man(a1-3)]Man(b1-4)GlcNAc(b1-4)GlcNAc
# Outline: as §1
# [12] = target: GlcNAc(b1-2)[GlcNAc(b1-6)]Man(a1-6)[GlcNAc(b1-2)Man(a1-3)]Man(b1-4)GlcNAc(b1-4)[Fuc(a1-6)]GlcNAc
# Outline: as §1
# [13] = target: GlcNAc(b1-2)[GlcNAc(b1-6)]Man(a1-6)[GlcNAc(b1-4)][GlcNAc(b1-2)Man(a1-3)]Man(b1-4)GlcNAc(b1-4)GlcNAc
# Outline: as §1
# GlcNAc(b1-3)Fuc = target: GlcNAc(b1-3)Fuc
# Outline: as §1
# GlcNAc(b1-3)Gal = target: GlcNAc(b1-3)Gal
# Outline: as §1
# [14] = target: GlcNAc(b1-3)Gal(b1-3)GalNAc
# Outline: as §1
# GlcNAc(b1-3)Gal(b1-4)Glc = target: GlcNAc(b1-3)Gal(b1-4)Glc
# Outline: as §1
# [15] = target: GlcNAc(b1-3)Gal(b1-4)GlcNAc
# Outline: as §1
# [16] = target: GlcNAc(b1-3)Gal(b1-4)GlcNAc(b1-2)Man(a1-3)[GlcNAc(b1-3)Gal(b1-4)GlcNAc(b1-2)Man(a1-6)]Man(b1-4)GlcNAc(b1-4)GlcNAc
# Outline: as §1
# [17] = target: GlcNAc(b1-3)Gal(b1-4)GlcNAc(b1-2)Man(a1-3)[GlcNAc(b1-3)Gal(b1-4)GlcNAc(b1-2)Man(a1-6)]Man(b1-4)GlcNAc(b1-4)[Fuc(a1-6)]GlcNAc
# Outline: as §1
# [18] = target: GlcNAc(b1-3)Gal(b1-4)GlcNAc(b1-2)[GlcNAc(b1-3)Gal(b1-4)GlcNAc(b1-6)]Man(a1-6)[GlcNAc(b1-3)Gal(b1-4)GlcNAc(b1-2)Man(a1-3)]Man(b1-4)GlcNAc(b1-4)GlcNAc
# Outline: as §1
# [19] = target: GlcNAc(b1-3)Gal(b1-4)GlcNAc(b1-3)Gal(b1-4)GlcNAc
# Outline: as §1
# [20] = target: GlcNAc(b1-3)Gal(b1-4)GlcNAc(b1-3)Gal(b1-4)GlcNAc(b1-2)Man(a1-3)[GlcNAc(b1-3)Gal(b1-4)GlcNAc(b1-3)Gal(b1-4)GlcNAc(b1-2)Man(a1-6)]Man(b1-4)GlcNAc(b1-4)GlcNAc
# Outline: as §1
# [21] = target: GlcNAc(b1-3)Gal(b1-4)GlcNAc(b1-3)Gal(b1-4)GlcNAc(b1-2)Man(a1-3)[GlcNAc(b1-3)Gal(b1-4)GlcNAc(b1-3)Gal(b1-4)GlcNAc(b1-2)Man(a1-6)]Man(b1-4)GlcNAc(b1-4)[Fuc(a1-6)]GlcNAc
# Outline: as §1
# [22] = target: GlcNAc(b1-3)Gal(b1-4)GlcNAc(b1-3)Gal(b1-4)GlcNAc(b1-2)[GlcNAc(b1-3)Gal(b1-4)GlcNAc(b1-3)Gal(b1-4)GlcNAc(b1-6)]Man(a1-6)[GlcNAc(b1-3)Gal(b1-4)GlcNAc(b1-3)Gal(b1-4)GlcNAc(b1-2)Man(a1-3)]Man(b1-4)GlcNAc(b1-4)[Fuc(a1-6)]GlcNAc
# Outline: as §1
# [23] = target: GlcNAc(b1-3)Gal(b1-4)GlcNAc(b1-3)Gal(b1-4)GlcNAc(b1-3)Gal(b1-4)GlcNAc(b1-2)Man(a1-3)[GlcNAc(b1-3)Gal(b1-4)GlcNAc(b1-3)Gal(b1-4)GlcNAc(b1-3)Gal(b1-4)GlcNAc(b1-2)Man(a1-6)]Man(b1-4)GlcNAc(b1-4)GlcNAc
# Outline: as §1
# [24] = target: GlcNAc(b1-3)Gal(b1-4)GlcNAc(b1-3)Gal(b1-4)GlcNAc(b1-3)Gal(b1-4)GlcNAc(b1-2)Man(a1-3)[GlcNAc(b1-3)Gal(b1-4)GlcNAc(b1-3)Gal(b1-4)GlcNAc(b1-3)Gal(b1-4)GlcNAc(b1-2)Man(a1-6)]Man(b1-4)GlcNAc(b1-4)[Fuc(a1-6)]GlcNAc
# Outline: as §1
# [25] = target: GlcNAc(b1-3)Gal(b1-4)GlcNAc(b1-3)Gal(b1-4)GlcNAc(b1-3)Gal(b1-4)GlcNAc(b1-2)[GlcNAc(b1-3)Gal(b1-4)GlcNAc(b1-3)Gal(b1-4)GlcNAc(b1-3)Gal(b1-4)GlcNAc(b1-6)]Man(a1-6)[GlcNAc(b1-3)Gal(b1-4)GlcNAc(b1-3)Gal(b1-4)GlcNAc(b1-3)Gal(b1-4)GlcNAc(b1-2)Man(a1-3)]Man(b1-4)GlcNAc(b1-4)[Fuc(a1-6)]GlcNAc
# Outline: as §1
# [26] = target: GlcNAc(b1-3)Gal(b1-4)GlcNAc(b1-3)Gal(b1-4)GlcNAc(b1-3)Gal(b1-4)GlcNAc(b1-3)Gal(b1-4)GlcNAc(b1-2)Man(a1-3)[GlcNAc(b1-3)Gal(b1-4)GlcNAc(b1-3)Gal(b1-4)GlcNAc(b1-3)Gal(b1-4)GlcNAc(b1-3)Gal(b1-4)GlcNAc(b1-2)Man(a1-6)]Man(b1-4)GlcNAc(b1-4)GlcNAc
# Outline: as §1
# [27] = target: GlcNAc(b1-3)Gal(b1-4)GlcNAc(b1-3)Gal(b1-4)GlcNAc(b1-3)Gal(b1-4)GlcNAc(b1-3)Gal(b1-4)GlcNAc(b1-2)Man(a1-3)[GlcNAc(b1-3)Gal(b1-4)GlcNAc(b1-3)Gal(b1-4)GlcNAc(b1-3)Gal(b1-4)GlcNAc(b1-3)Gal(b1-4)GlcNAc(b1-2)Man(a1-6)]Man(b1-4)GlcNAc(b1-4)[Fuc(a1-6)]GlcNAc
# Outline: as §1
# [28] = target: GlcNAc(b1-3)Gal(b1-4)GlcNAc(b1-3)Gal(b1-4)GlcNAc(b1-3)Gal(b1-4)GlcNAc(b1-3)Gal(b1-4)GlcNAc(b1-2)[GlcNAc(b1-3)Gal(b1-4)GlcNAc(b1-3)Gal(b1-4)GlcNAc(b1-3)Gal(b1-4)GlcNAc(b1-3)Gal(b1-4)GlcNAc(b1-6)]Man(a1-6)[GlcNAc(b1-3)Gal(b1-4)GlcNAc(b1-3)Gal(b1-4)GlcNAc(b1-3)Gal(b1-4)GlcNAc(b1-3)Gal(b1-4)GlcNAc(b1-2)Man(a1-3)]Man(b1-4)GlcNAc(b1-4)[Fuc(a1-6)]GlcNAc
# Outline: as §1
# [29] = target: GlcNAc(b1-3)Gal(b1-4)GlcNAc(b1-3)Gal(b1-4)GlcNAc(b1-3)GalNAc
# Outline: as §1
# [30] = target: GlcNAc(b1-3)Gal(b1-4)GlcNAc(b1-3)GalNAc
# Outline: as §1
# [31] = target: GlcNAc(b1-3)Gal(b1-4)GlcNAc(b1-3)[GlcNAc(b1-3)Gal(b1-4)GlcNAc(b1-3)]GalNAc
# Outline: as §1
# [32] = target: GlcNAc(b1-3)Gal(b1-4)GlcNAc(b1-6)[Gal(b1-3)]GalNAc
# Outline: as §1
# [33] = target: GlcNAc(b1-3)Gal(b1-4)GlcNAc(b1-6)[GlcNAc(b1-3)Gal(b1-3)]GalNAc
# Outline: as §1
# [34] = target: GlcNAc(b1-3)Gal(b1-4)GlcNAc(b1-6)[GlcNAc(b1-3)]Gal(b1-4)GlcNAc
# Outline: as §1
# GlcNAc(b1-3)GalNAc = target: GlcNAc(b1-3)GalNAc
# Outline: as §1
# GlcNAc(b1-3)Man = target: GlcNAc(b1-3)Man
# Outline: as §1
# [35] = target: GlcNAc(b1-3)[GlcNAc(b1-4)][GlcNAc(b1-6)]GlcNAc
# Outline: as §1
# [36] = target: GlcNAc(b1-3)[GlcNAc(b1-6)]Gal(b1-4)GlcNAc
# Outline: as §1
# [37] = target: GlcNAc(b1-3)[GlcNAc(b1-6)]GalNAc
# Outline: as §1
# [38] = target: GlcNAc(b1-4)Gal(b1-4)GlcNAc
# Outline: as §1
# GlcNAc(b1-4)GlcNAc = target: GlcNAc(b1-4)GlcNAc
# Outline: as §1
# [39] = target: GlcNAc(b1-4)GlcNAc(b1-4)GlcNAc
# Outline: as §1
binder,measurement,setting,value
AAL (Aleuria aurantia) (protein) MPTEFLYTSKIAAISWAATGGRQQRVYFQDLNGKIREAQRGGDNPWTGGSSQNVIGEAKLFSPLAAVTWKSAQGIQIRVYCVNKDNILSEFVYDGSKWITGQLGSVGVKVGSNSKLAALQWGGSESAPPNIRVYYQKSNGSGSSIHEYVWSGKWTAGASFGSTVPGTGIGATAIGPGRLRIYYQATDNKIREHCWDSNSWYVGGFSASASAGVSIAAISWGSTPQIRVYWQKGREELYEAAYGGSWNTPGQIKDASRPTPSLPDTFIAANSSGNIDISVFFQASGVSLQQWQWISGKGWSIGAVVPTGTPAGW,glycan array binding signal (z-score),[1],-0.334
same,glycan array binding signal (z-score),[2],-0.326
same,glycan array binding signal (z-score),[3],-0.31
same,glycan array binding signal (z-score),[4],-0.265
same,glycan array binding signal (z-score),[5],-0.308
same,glycan array binding signal (z-score),[6],0.193
same,glycan array binding signal (z-score),[7],-0.312
same,glycan array binding signal (z-score),[8],-0.312
same,glycan array binding signal (z-score),[9],-0.314
same,glycan array binding signal (z-score),[10],-0.017
same,glycan array binding signal (z-score),[11],-0.297
same,glycan array binding signal (z-score),[12],0.848
same,glycan array binding signal (z-score),[13],-0.315
same,glycan array binding signal (z-score),GlcNAc(b1-3)Fuc,2.49
same,glycan array binding signal (z-score),GlcNAc(b1-3)Gal,-0.318
same,glycan array binding signal (z-score),[14],-0.311
same,glycan array binding signal (z-score),GlcNAc(b1-3)Gal(b1-4)Glc,-0.317
same,glycan array binding signal (z-score),[15],-0.321
same,glycan array binding signal (z-score),[16],-0.276
same,glycan array binding signal (z-score),[17],2.41
same,glycan array binding signal (z-score),[18],-0.242
same,glycan array binding signal (z-score),[19],-0.318
same,glycan array binding signal (z-score),[20],-0.108
same,glycan array binding signal (z-score),[21],2.92
same,glycan array binding signal (z-score),[22],0.179
same,glycan array binding signal (z-score),[23],-0.262
same,glycan array binding signal (z-score),[24],1.82
same,glycan array binding signal (z-score),[25],-0.085
same,glycan array binding signal (z-score),[26],-0.259
same,glycan array binding signal (z-score),[27],1.97
same,glycan array binding signal (z-score),[28],-0.25
same,glycan array binding signal (z-score),[29],-0.308
same,glycan array binding signal (z-score),[30],-0.305
same,glycan array binding signal (z-score),[31],-0.276
same,glycan array binding signal (z-score),[32],-0.31
same,glycan array binding signal (z-score),[33],-0.284
same,glycan array binding signal (z-score),[34],-0.31
same,glycan array binding signal (z-score),GlcNAc(b1-3)GalNAc,-0.321
same,glycan array binding signal (z-score),GlcNAc(b1-3)Man,-0.306
same,glycan array binding signal (z-score),[35],-0.327
same,glycan array binding signal (z-score),[36],-0.322
same,glycan array binding signal (z-score),[37],-0.323
same,glycan array binding signal (z-score),[38],-0.334
same,glycan array binding signal (z-score),GlcNAc(b1-4)GlcNAc,-0.324
same,glycan array binding signal (z-score),[39],-0.328
